Assay results reported in the supplement of paper PMC8728848.
The other results are listed elsewhere or left out.

Tests used:
Test in all cases: glycan array binding signal (z-score within array); higher = stronger binding
Details in all cases: glycan notation: IUPAC condensed, linker removed
[1] = biological target: Fuc(a1-3)[GalNAc(b1-4)]GlcNAc
Outline: (§1)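 The binding signal is a Z-score computed within each array. Data were drawn from 3228 arrays in the Consortium for Functional Glycomics database, restricted to those with a known protein sequence. Scores were averaged over arrays of the same protein sequence at different concentrations or buffers, and over linkers, and negative values can be taken as non-binding.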

Fuc(a1-4)GlcNAc = biological target: Fuc(a1-4)GlcNAc
Outline: as §1

Fuc(b1-3)GlcNAc = biological target: Fuc(b1-3)GlcNAc
Outline: as §1

Gal(a1-2)Gal = biological target: Gal(a1-2)Gal
Outline: as §1

Gal(a1-3)Gal = biological target: Gal(a1-3)Gal
Outline: as §1

Gal(a1-3)Gal(b1-3)GlcNAc = biological target: Gal(a1-3)Gal(b1-3)GlcNAc
Outline: as §1

Gal(a1-3)Gal(b1-4)Glc = biological target: Gal(a1-3)Gal(b1-4)Glc
Outline: as §1

Gal(a1-3)Gal(b1-4)GlcNAc = biological target: Gal(a1-3)Gal(b1-4)GlcNAc
Outline: as §1

[2] = biological target: Gal(a1-3)Gal(b1-4)[Fuc(a1-3)]GlcNAc
Outline: as §1

Gal(a1-3)GalNAc = biological target: Gal(a1-3)GalNAc
Outline: as §1

[3] = biological target: Gal(a1-3)[Gal(a1-4)]Gal(b1-4)GlcNAc
Outline: as §1

Gal(a1-4)Gal(b1-4)Glc = biological target: Gal(a1-4)Gal(b1-4)Glc
Outline: as §1

Gal(a1-4)Gal(b1-4)GlcNAc = biological target: Gal(a1-4)Gal(b1-4)GlcNAc
Outline: as §1

Gal(a1-4)GlcNAc = biological target: Gal(a1-4)GlcNAc
Outline: as §1

Gal(a1-6)Glc = biological target: Gal(a1-6)Glc
Outline: as §1

Gal(b1-2)Gal = biological target: Gal(b1-2)Gal
Outline: as §1

Gal(b1-3)Gal = biological target: Gal(b1-3)Gal
Outline: as §1

Gal(b1-3)Gal(b1-4)GlcNAc = biological target: Gal(b1-3)Gal(b1-4)GlcNAc
Outline: as §1

Gal(b1-3)GalNAc = biological target: Gal(b1-3)GalNAc
Outline: as §1

[4] = biological target: Gal(b1-3)GalNAc(b1-3)Gal(a1-4)Gal(b1-4)Glc
Outline: as §1

[5] = biological target: Gal(b1-3)GalNAc(b1-4)Gal(b1-4)Glc
Outline: as §1

[6] = biological target: Gal(b1-3)GalNAc(b1-4)[Neu5Ac(a2-3)]Gal(b1-4)Glc
Outline: as §1

Gal(b1-3)GlcNAc = biological target: Gal(b1-3)GlcNAc
Outline: as §1

[7] = biological target: Gal(b1-3)GlcNAc(b1-2)Man(a1-3)[Gal(b1-3)GlcNAc(b1-2)Man(a1-6)]Man(b1-4)GlcNAc(b1-4)GlcNAc
Outline: as §1

[8] = biological target: Gal(b1-3)GlcNAc(b1-3)Gal(b1-3)GlcNAc
Outline: as §1

[9] = biological target: Gal(b1-3)GlcNAc(b1-3)Gal(b1-4)Glc
Outline: as §1

[10] = biological target: Gal(b1-3)GlcNAc(b1-3)Gal(b1-4)GlcNAc
Outline: as §1

[11] = biological target: Gal(b1-3)[Fuc(a1-4)]GlcNAc
Outline: as §1

[12] = biological target: Gal(b1-3)[Fuc(a1-4)]GlcNAc(b1-3)Gal(b1-3)[Fuc(a1-4)]GlcNAc
Outline: as §1

[13] = biological target: Gal(b1-3)[Fuc(a1-4)]GlcNAc(b1-3)Gal(b1-4)GlcNAc
Outline: as §1

[14] = biological target: Gal(b1-3)[Fuc(a1-4)]GlcNAc(b1-3)Gal(b1-4)[Fuc(a1-3)]GlcNAc
Outline: as §1

[15] = biological target: Gal(b1-3)[GlcNAc(b1-6)]GalNAc
Outline: as §1

[16] = biological target: Gal(b1-3)[Neu5Ac(a2-6)]GalNAc
Outline: as §1

[17] = biological target: Gal(b1-3)[Neu5Ac(a2-6)]GlcNAc(b1-6)Gal(b1-4)Glc
Outline: as §1

[18] = biological target: Gal(b1-3)[Neu5Ac(b2-6)]GalNAc
Outline: as §1

[19] = biological target: Gal(b1-4)GalNAc(a1-3)[Fuc(a1-2)]Gal(b1-4)GlcNAc
Outline: as §1

[20] = biological target: Gal(b1-4)GalNAc(b1-3)[Fuc(a1-2)]Gal(b1-4)GlcNAc
Outline: as §1

Gal(b1-4)Glc = biological target: Gal(b1-4)Glc
Outline: as §1

Gal(b1-4)Glc6S = biological target: Gal(b1-4)Glc6S
Outline: as §1

Gal(b1-4)GlcNAc = biological target: Gal(b1-4)GlcNAc
Outline: as §1

[21] = biological target: Gal(b1-4)GlcNAc(a1-6)Gal(b1-4)GlcNAc
Outline: as §1

[22] = biological target: Gal(b1-4)GlcNAc(b1-2)Man(a1-3)[Gal(b1-4)GlcNAc(b1-2)Man(a1-6)]Man(b1-4)GlcNAc(b1-4)GlcNAc
Outline: as §1

[23] = biological target: Gal(b1-4)GlcNAc(b1-3)Gal(b1-3)GlcNAc
Outline: as §1

[24] = biological target: Gal(b1-4)GlcNAc(b1-3)Gal(b1-4)Glc
Outline: as §1

[25] = biological target: Gal(b1-4)GlcNAc(b1-3)Gal(b1-4)GlcNAc
Outline: as §1

B1: Codakine (Codakia orbicularis), Q3KVL7_9BIVA (protein)
chain: MKILVAVFLVLVVVGTAAAGCPDGWTQFLDLCYIYQSAKASWASAQSSCQALGGILAEPDTACENEVLIHMCRENGDAGSFGPWLGGQKVGGAWQWSSSGAAFDYLRWGPNEPNNSGGNEDCLHYNWLSWNDLRCHYQASYLCQRAAE
- glycan array binding signal (z-score) [1]: -0.319
- glycan array binding signal (z-score) (Fuc(a1-4)GlcNAc): -0.265
- glycan array binding signal (z-score) (Fuc(b1-3)GlcNAc): -0.361
- glycan array binding signal (z-score) (Gal(a1-2)Gal): -0.314
- glycan array binding signal (z-score) (Gal(a1-3)Gal): -0.294
- glycan array binding signal (z-score) (Gal(a1-3)Gal(b1-3)GlcNAc): 0.072
- glycan array binding signal (z-score) (Gal(a1-3)Gal(b1-4)Glc): -0.242
- glycan array binding signal (z-score) (Gal(a1-3)Gal(b1-4)GlcNAc): -0.107
- glycan array binding signal (z-score) [2]: -0.123
- glycan array binding signal (z-score) (Gal(a1-3)GalNAc): -0.298
- glycan array binding signal (z-score) [3]: -0.265
- glycan array binding signal (z-score) (Gal(a1-4)Gal(b1-4)Glc): -0.176
- glycan array binding signal (z-score) (Gal(a1-4)Gal(b1-4)GlcNAc): -0.168
- glycan array binding signal (z-score) (Gal(a1-4)GlcNAc): -0.191
- glycan array binding signal (z-score) (Gal(a1-6)Glc): -0.362
- glycan array binding signal (z-score) (Gal(b1-2)Gal): -0.123
- glycan array binding signal (z-score) (Gal(b1-3)Gal): -0.325
- glycan array binding signal (z-score) (Gal(b1-3)Gal(b1-4)GlcNAc): -0.318
- glycan array binding signal (z-score) (Gal(b1-3)GalNAc): -0.324
- glycan array binding signal (z-score) [4]: -0.42
- glycan array binding signal (z-score) [5]: -0.243
- glycan array binding signal (z-score) [6]: -0.107
- glycan array binding signal (z-score) (Gal(b1-3)GlcNAc): -0.236
- glycan array binding signal (z-score) [7]: 0.389
- glycan array binding signal (z-score) [8]: -0.329
- glycan array binding signal (z-score) [9]: -0.326
- glycan array binding signal (z-score) [10]: -0.257
- glycan array binding signal (z-score) [11]: -0.203
- glycan array binding signal (z-score) [12]: -0.077
- glycan array binding signal (z-score) [13]: -0.047
- glycan array binding signal (z-score) [14]: 0.044
- glycan array binding signal (z-score) [15]: -0.251
- glycan array binding signal (z-score) [16]: -0.307
- glycan array binding signal (z-score) [17]: -0.307
- glycan array binding signal (z-score) [18]: -0.245
- glycan array binding signal (z-score) [19]: -0.419
- glycan array binding signal (z-score) [20]: -0.318
- glycan array binding signal (z-score) (Gal(b1-4)Glc): -0.285
- glycan array binding signal (z-score) (Gal(b1-4)Glc6S): -0.273
- glycan array binding signal (z-score) (Gal(b1-4)GlcNAc): -0.3
- glycan array binding signal (z-score) [21]: -0.239
- glycan array binding signal (z-score) [22]: 4.02
- glycan array binding signal (z-score) [23]: -0.239
- glycan array binding signal (z-score) [24]: -0.283
- glycan array binding signal (z-score) [25]: -0.271
